The whole screen tested about 300,000 compounds, of which about 22,000 (7.3%) were called active. The inconclusive results got no clear call from the source; some entries with a clear call stand among them for comparison. Rule as the data show it: active = activity score below about -60%; inconclusive = mostly about -28% to -61%; inactive = positive scores.
assay: Activators via SNCA 5'UTR binding, MLPCN (AID 1814); conditions: alpha-synuclein 5'UTR reporter, activators screen; active compounds read low; tested at 7.5 µM

| SMILES | activity score |
| --- | --- |
| Cc1ccc(-c2ccc(/C=N/NC(=O)c3ccccc3O)o2)cc1 | inconclusive: -47.8% |
| CCN(CC)CCCSc1nc2ccccc2s1 | inconclusive: -57.8% |
| Cc1onc(-c2c(Cl)cccc2Cl)c1C(=O)Nc1nc(C(C)(C)C)cs1 | inactive: 79.6% |
| c1csc(-c2nc3ccccc3s2)c1 | active: -148% |
| O=C(Cn1nnc(-c2ccccc2NC(=O)c2ccco2)n1)Nc1ccccc1 | inconclusive: -49.4% |
| CCC(=O)Nc1cccc(NC(=O)c2ccc(Br)cc2)c1 | active: -117% |
| Oc1[nH]c2ccccc2c1N=Nc1ncnc2c1oc1ccccc12 | inconclusive: -52.6% |
| COc1cccc(CNC(=O)Nc2cccs2)c1 | inconclusive: -55% |
| COc1ccc(NC(=O)CSc2ccccc2)cn1 | active: -85.9% |
| COc1ccccc1N1CCN(C(=O)C2c3ccccc3Oc3ccccc32)CC1 | inactive: 80.9% |
| CCCOC(=O)c1ccc(Cl)c(NC(=O)c2ccc(-c3ccccc3)cc2)c1 | inconclusive: -51.2% |
| O=C(N/N=C/c1ccc(OC(F)F)cc1)C1=COCCO1 | inconclusive: -59.3% |
| c1c2c(cc3sc(N4CCCCC4)nc13)OCCO2 | inactive: 107% |
| COc1cccc(-c2noc(-c3ccc(Cl)nc3)n2)c1 | active: -182% |
| Cc1nc2cc(-c3sccc3-n3cccc3)nn2c(C)c1C | inconclusive: -59.7% |
| CCCNc1nc(-c2ccccc2)c(C(=O)OCC)cc1C#N | inactive: 93.9% |
| O=C(Nc1cccc(-c2nnc(-c3ccccc3)o2)c1)C1CCCO1 (stereo unspecified) | active: -126% |
| O=C(Cc1cccs1)NNC(=S)NC(=O)c1ccco1 | inconclusive: -44.8% |
| O=C(C1CCCCC1)N(CCN1CCCC1)c1nc2ccccc2s1 | inconclusive: -51.6% |
| COc1ccc(/C=C2\CN(Cc3ccccc3)C/C(=C\c3ccc(OC)c(O)c3)C2=O)cc1O | inactive: 107% |
| Clc1ccc2nc(CSc3nc4ccccc4o3)cn2c1 | inconclusive: -50.2% |
| Cc1ccc(Cn2ccc(NC(=O)c3nn(C)cc3Cl)n2)cc1 | active: -112% |
| CCn1cc(C2=NC(C)CO2)c2ccccc21 (stereo unspecified) | inconclusive: -41.4% |
| CCc1ccc(Oc2nnnn2-c2ccc(C(N)=O)cc2)cc1 | inconclusive: -47.4% |

| SMILES | activity score |
| --- | --- |
| CCOC(=O)N1CCN(CC(=O)c2ccc3c(c2)CCN3)CC1 | inconclusive: -27.9% |
| CC1(C)CC(=O)c2cc(OCC(=O)N3CCOCC3)ccc2O1 | inconclusive: -50.1% |
| O=C(Nc1ccccc1C(=O)O)c1ccc2ccccc2n1 | inconclusive: -58.1% |
| Cc1cc(NC(=O)c2ccc(C)c([N+](=O)[O-])c2)no1 | inconclusive: -57.5% |
| Cc1ccc(-c2cc(-c3n[nH]c(=S)n3C)c3ccccc3n2)cc1 | inconclusive: -48.9% |
| COC(=O)c1cc(NC(=O)c2ccccc2)c(=O)oc1C | inconclusive: -39% |
| Cc1ccc(-c2cc(C(=O)N3CCN(c4ncccn4)CC3)c3ccccc3n2)cc1 | inconclusive: -54.7% |
| CCCc1cc2c(=O)c(-c3ccc4c(c3)OCCO4)coc2cc1OS(C)(=O)=O | active: -222% |
| CC(C)CNC(=S)NNC(=O)c1csc2c1CCCC2 | inconclusive: -58% |
| Cc1ccc(/C=C/C(=O)Nc2cc(=O)n(C)c(=O)n2C)o1 | inconclusive: -41.8% |
| CCCC(=O)Nc1nnc(-c2ccc3c(c2)OCCO3)o1 | inconclusive: -56.1% |
| CN(C)c1ccc(NC(=S)c2ccccn2)cc1 | inactive: 97.1% |
| COc1ccc(-c2nnc(SCC(=O)c3ccc(O)cc3O)o2)cc1 | inconclusive: -37.2% |
| COc1ccc(C2=NN(C)C(=NCc3ccccc3)SC2)cc1 | inconclusive: -61% |
| Cc1ccn2cc(C(=O)Nc3nnc(C)s3)nc2c1 | active: -111% |
| CC1CCN(C(=O)CS(=O)(=O)Cc2ccccc2)CC1 | inconclusive: -58.9% |
| Cc1ccc(C(c2cc(Cl)c3cccnc3c2O)N2CCN(C)CC2)cc1 (stereo unspecified) | inactive: 66.3% |
| Cc1ccc(Oc2cc(-n3nc(C)cc3C)ncn2)cc1 | inconclusive: -48.7% |
| CCOC(=O)c1c(C)oc2cc(Cl)c(O)c(CN(C)C)c12 | inconclusive: -57.2% |
| COc1ccc(N2CCN(Cc3cc(=O)oc4cc(-c5ccccc5)c(O)cc34)CC2)cc1 | inactive: 73.1% |
| O=C(NCCCn1ccnc1)/C(=C\c1ccc(Br)cc1)NC(=O)c1ccccc1 | inconclusive: -39.1% |
| O=C(Nc1cccc(NC(=O)c2ccccc2Cl)c1)c1ccc([N+](=O)[O-])o1 | inactive: 85.8% |
| CC1Cc2ccccc2N1c1ncnc(N)c1[N+](=O)[O-] (stereo unspecified) | inactive: 68.7% |
| CNc1ccccc1-n1ccc(-c2ccccc2)n1 | inconclusive: -55.1% |

| SMILES | activity score |
| --- | --- |
| Cc1cc(C)c2nc(NNC(=O)c3ccc(S(=O)(=O)N4CC(C)CC(C)C4)cc3)sc2c1 (stereo unspecified) | inactive: 71.9% |
| CC(=O)OC(CC(=O)O)C[N+](C)(C)C (stereo unspecified) | inactive: 67.7% |
| O=C(CNS(=O)(=O)c1ccccc1)N1CCc2ccccc2C1 | inconclusive: -49.2% |
| CC1=NN(c2ccccc2)C(=O)C1N=Nc1ccc(N)cc1 (stereo unspecified) | inconclusive: -55.7% |
| O=C(NC1CCCC1)c1cccc(Oc2ccccc2)c1 | inconclusive: -53% |
| COc1ccccc1C(=O)NNC1CC(=O)N(c2ccc3c(c2)OCCO3)C1=O (stereo unspecified) | inconclusive: -45.5% |
| NNCCc1ccccc1 | active: -133% |
| COc1ccc(NC(=O)C/C(C)=N/NC(=O)c2ccco2)c([N+](=O)[O-])c1 | inconclusive: -55.1% |
| O=C(Nc1ccccc1)C1=C[C@H](c2ccc3c(c2)OCO3)C[C@H](OCc2ccc(CO)cc2)O1 | inconclusive: -59% |
| COc1ccc(/C=C2\SC(=S)N(CCCC(=O)Nc3ccc(O)cc3)C2=O)cc1 | inactive: 77.7% |
| c1ccc2[nH]c3cc4ncnc4cc3nc2c1 | inconclusive: -53.2% |
| COC(C(=O)Nc1ccnn1C1CCN(C(=O)c2ccc(C=O)cc2)CC1)c1ccccc1 (stereo unspecified) | inconclusive: -40.8% |
| COc1ccc(C(=O)O/N=C(/c2ccccc2)c2ccncc2)cc1 | active: -71.7% |
| COCCN=C1NN=C(c2ccc(C)c([N+](=O)[O-])c2)CS1 | active: -108% |
| COc1ccc(/C=N/NC(=O)c2sccc2C)c2ccccc12 | active: -110% |
| O=S(=O)(c1ccc2c(c1)C(=NO)c1cc(S(=O)(=O)N3CCCCC3)ccc1-2)N1CCCCC1 | inactive: 96.5% |
| CCCOc1ccc2cc(-c3ccccn3)c(=O)oc2c1 | inactive: 77.2% |
| O=c1c2ccccc2nnn1CSc1ccc2ccccc2n1 | inconclusive: -51.7% |
| Cc1ccc2nc(NC(=O)CSc3nnc(C)c(=O)n3N)sc2c1 | inconclusive: -45.8% |
| COc1ccccc1CC(=O)O/N=C(\N)c1ccccn1 | inconclusive: -57.7% |
| CC(C)CCOCC(=O)Nc1cccc(C(=O)O)c1 | active: -72.9% |
| CC(=O)c1cc2c(cc1NC(=O)c1ccco1)OCCO2 | inconclusive: -61.1% |
| CCCCN=C1NN=C(c2ccc(C)c(C)c2)CS1 | active: -162% |
| O=C(O)c1cc(-c2ccc(-c3c(-c4ccc5c(c4)OCO5)noc3-c3ccsc3)cc2)nc2ccccc12 | inconclusive: -56.1% |

| SMILES | activity score |
| --- | --- |
| O=c1c2ccccc2cnn1-c1ccc(Cl)cc1 | inconclusive: -54.9% |
| Cc1ccc(C(=O)N/C(=C/c2cccs2)C(=O)NCCc2c[nH]c3ccccc23)cc1 | inconclusive: -42.6% |
| Cc1ccc(/C=N/NC(=O)c2cc(C)oc2C)cc1 | inconclusive: -55.2% |
| CCc1nnc(NC(=O)CSc2ncc(-c3ccccc3)[nH]2)s1 | inconclusive: -49.9% |
| COc1ccc(CC(=O)N(Cc2cc3cc(OC)ccc3[nH]c2=O)C(C)C)cc1 | inconclusive: -56.7% |
| O=C(NC(=S)N1CCc2ccccc21)c1ccccc1Br | inconclusive: -38.4% |
| CC(C)CC(=O)N/C(N)=N/c1nc2ccccc2s1 | active: -93.4% |
| Cc1ccc(C)c(OCc2nc3ccccc3[nH]2)c1 | active: -113% |
| COCCN(Cc1ccccc1)C(=S)Nc1ccc(Cl)cc1 | inactive: 59.3% |
| O=C(Nc1ncccc1O)c1ccc(S(=O)(=O)N2CCCCCC2)cc1 | inconclusive: -52.7% |
| c1cn2c(NC3CCCC3)c(-c3ccc(N4CCOCC4)cc3)nc2cn1 | inconclusive: -47.5% |
| O=C(CCCc1c[nH]c2ccccc12)Nc1ccc2ccccc2c1 | inconclusive: -52.6% |
| CCN1/C(=C/C=C/c2oc3ccc4ccccc4c3[n+]2CC)Oc2ccc3ccccc3c21 | inactive: 92.5% |
| O=C(NC(=S)N1CCCc2ccccc21)c1ccc([N+](=O)[O-])cc1 | inconclusive: -52% |
| COc1ccc(-c2cn3ccc(C)cc3n2)cc1 | inactive: 92.2% |
| CC(=O)N1N=C(c2cccs2)CC1c1ccc(Br)cc1 (stereo unspecified) | inconclusive: -61.1% |
| CCc1cccc(NC(=O)NC2CCCCC2)c1 | inconclusive: -52.5% |
| C[C@@H](C(=O)Nc1nc2ccc(F)cc2s1)N1C(=O)C2CC=CCC2C1=O (stereo partly specified) | inconclusive: -58.8% |
| COc1ccc(N=Nc2c(C)n[nH]c2C)cc1 | inconclusive: -49.7% |
| S=C(NCCc1ccccc1)Nc1ccc(Cl)cc1Cl | inconclusive: -52% |
| CCOc1ccc(N=c2scc(-c3ccccc3)n2CCO)cc1 | active: -104% |
| Clc1cccc(-c2csc(Nc3cccnc3)n2)c1 | inconclusive: -58.6% |
| CCN(CC)CCCNC(=O)c1cc2c(-c3cccc(OC)c3)nn(C)c2s1 | inconclusive: -49.1% |
| CC(=O)n1cc(N(C(=O)CCl)c2ccc(Cl)cc2)c2ccccc21 | inactive: 103% |

Reference: PubChem BioAssay AID1814 (Broad Institute, 2009)
